63 sequences from the supplement of paper PMC10681739 can be followed below.

± gives the standard deviation of the averaged measurements. The full ranking holds about 4,000 sequences; the median of “arbitrary fluorescence units” is about 830, and the highest 2% start at about 6,500. Most of the strongest results are missing from this list.
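Also: Full-length recombinant human RUNX1 bound to double-stranded DNA microarray spots, detected with an Alexa488-labelled secondary antibody after the anti-RUNX1 primary, read as scanned spot fluorescence.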

UniProt Q01196, sequence (Q01196 whole entry): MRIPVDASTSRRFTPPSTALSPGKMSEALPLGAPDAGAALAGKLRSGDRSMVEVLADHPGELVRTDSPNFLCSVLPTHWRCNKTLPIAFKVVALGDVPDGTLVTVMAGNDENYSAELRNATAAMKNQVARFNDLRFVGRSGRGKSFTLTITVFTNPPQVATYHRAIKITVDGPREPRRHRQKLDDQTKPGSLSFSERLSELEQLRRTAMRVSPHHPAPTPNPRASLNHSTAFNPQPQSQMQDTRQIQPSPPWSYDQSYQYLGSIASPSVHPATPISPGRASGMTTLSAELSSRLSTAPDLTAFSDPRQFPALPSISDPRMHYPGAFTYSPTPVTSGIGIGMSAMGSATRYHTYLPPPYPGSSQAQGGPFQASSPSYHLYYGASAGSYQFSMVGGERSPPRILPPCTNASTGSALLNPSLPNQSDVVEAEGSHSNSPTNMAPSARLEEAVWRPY

The experiment deals with RUNX1 (UniProt Q01196). Briefly: RUNX1 binding intensity (PBM fluorescence), RUNX1 alone (arbitrary fluorescence units); higher = stronger binding. Particulars: RUNX1 concentration 2 nM; ETS1 concentration 0 nM. The protocol:
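gcPBM on 36-bp genomic-derived probes (partner site mutated) containing one RUNX1 site and no ETS1 site. Recombinant human RUNX1 (2 nM) was incubated alone or with ETS1 (25 nM) and detected by anti-RUNX1 antibody fluorescence. Values are medians over 4 replicate spots (not normalised). The probes sit in constant array flanks that are not printed.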
As for TAAGGCAACCACCTCCTCTCAAGACCCTTTCCAGCC, the RUNX1 binding intensity amounted to 957.
TCCCCTACCGCTAGTGGAAGAAGATGGCGCAAGGCG: the RUNX1 binding intensity was found to be 755.
GGCAGGAGCTTCAGGCTCAGCCCTGCGGCCTGTGCC yielded an RUNX1 binding intensity of 666.
As to CAGGCACACATACGGGAGCGGCCTGCGCCGCAAGGC, the RUNX1 binding intensity amounted to 735.
TACCTACATGCTGCCACCACCCGAGGGGACCGCAAG came in with an RUNX1 binding intensity of 906.
Sequence TGCAATCTTAACCGCTGTGCTTCGGTCGCAGTGGGA yielded an RUNX1 binding intensity of 875.
As for TACCCAGAAAGGAGGTGGAACCTGCGGTGAGGCCCC, the figure is 833; as for TATTCAGCAGCAAAGGAGAGAGTCTGTGGTATCTGC, 708; as for AGGTCTCCGAAAGTGGGTCTGCGGCGCGCGGGATGC, 653.
Sequence GCGTGGGGCCGCAGAGCGAGTCGGGAGACGATTTTA displayed an RUNX1 binding intensity of 736.
Consider GACTTTTACGGAGATAGCAGTCCAAAACCGCGTCTA, for which the RUNX1 binding intensity worked out at 867.
As for AAGCTCCCTGGCCCTTTAAAAATGGCGGTTCCGCAC, the figure is 825.
The sequence CGAGCCGCAGTTTTACGCAGACACACTCCCGGCGCT yielded an RUNX1 binding intensity of 759.
As for TGCATGCAACAGGCAGTGGGGTGTGGTTTGTTCTGG, the figure is 806; as for GCCGTGAGAAACAACCTGCCTAACCACCTGACTACA, 1030; as for CAGTCGCCAGAAACCACAGCACTTCGGCCTGCTTCA, 1480.
As for AAAGCAAACATGAAGTGCTGTGGTAACAAGGCCCCA, the figure is 776.
In the case of CGTCTCCTCGCGGGCCGGCGCACCGCGCGGTCACTT, the RUNX1 binding intensity worked out at 1110.
As for TTTTCTCTAAACCACATGAAAACAGGCAATGAGCCT, the RUNX1 binding intensity is 1350.
Turning to CACTGATAACCACCTCTCTACACTGCTCGTCTTGAT, the RUNX1 binding intensity worked out at 1500.
As for CCTCCCGAACGGCGCGGGGGATTGTGGGGTGTAGGG, the RUNX1 binding intensity was found to be 960.
GACAACCCCATCATGCGCTCGCCCGCGGTGTCTCGG displayed an RUNX1 binding intensity of 780.
GTGGCTCCCTGCCATTGACAATTGCGGGATGGCTTT: the RUNX1 binding intensity was determined as 781.
Sequence AGTGCGGTTTCTGGTGAGGGCCCTCTTGCTGGCTTG came in with an RUNX1 binding intensity of 2910.
Consider GAGAGGAGCGCGGTCACTGCTTCGTTCCACCCTCGC, for which the RUNX1 binding intensity was 836.
For CCGGTCGCTGAGTGGTTGAGGCCGTAAGACAACGCT, the RUNX1 binding intensity stood at 870.
CTCGGCGAACCCGCGGGAGGCGGCACCATTGCACCG had an RUNX1 binding intensity of 820.
Sequence AACCTCCGAGGGAACTAACTGGTTTTAACCACATTG returned an RUNX1 binding intensity of 749.
AGGGACGCAGCAAGTGACTGCGGGAGTGGAGCCGGC came in with an RUNX1 binding intensity of 673.
Turning to GGGGCGCACACTGCCGCAAAGCGGAGGTGTGGCGCT, the RUNX1 binding intensity stood at 721.
As to TTCAACAGGGTGTGGGAACTTGACTCTCGCCGCAAA, the RUNX1 binding intensity turned out to be 936.
For the sequence AAGTGCAGACACCACACACCCCACAGGCAGTCAAGT, the RUNX1 binding intensity worked out at 834.
With GAGGGAAGGGAACCCGCGCCGCCGGCAGGAGCCGCT, the RUNX1 binding intensity stood at 747.
On to CGGTGCAATGGTGCCGCCTCCCGCGGGTTCGCCGAG, for which the RUNX1 binding intensity worked out at 719.
As for CTCCTCACCACACTGCTGCTGCCAGCAAGTGGGGGA, the figure is 893.
Turning to AGCCAGGCAATCCGCACCTACACAGCCCAACCACAG, the RUNX1 binding intensity is 1040.
The sequence TGCAGCCTATCTCCTCTAACCCGCAGATCCACTATG showed an RUNX1 binding intensity of 1270.
In the case of AGCCAGCGCGGTGTGGTGGATCGTGATTCCAGCCCG, the RUNX1 binding intensity was 642.
The sequence CTGAGCCACCGCAGCCAGTCTTTTATGCATTCGGCG returned an RUNX1 binding intensity of 894.
As for GGCGCGCGAGACCCGCAGACAGCGCAACTGGAGCCC, the figure is 756; as for TGGGTACTTGCTGTGACAAATCGAGTTGACCACATG, 727.
As for CAGCTAGAGGAGGCGCTTCGCCCGCGAACCACAGGG, the figure is 750.
On to CGCCTGGTGTCCAGTCCCGGGGCCGCAGGGTCCGGC, for which the RUNX1 binding intensity came to 682.
As for CCATTGCCTGATTCTAATGTTCATCAACCACTTTTG, the figure is 1320.
In the case of ACTGTGTGTGGTGTTCCATAGAGGACACTGCAAAGC it was 787; in that of GGCAAGCTGGTGGTTAAGATTCTCAGGCAGCAAGAC, 835; in that of AGCGGGGAGCAAGATCAGAAGAAAACCCCACAAGTT, 890.
On to GTGTTTTCATGGTGGCCCGGCCGTGCCTGAGGTTTC, for which the RUNX1 binding intensity was 955.
CTTGTAGTCAGGTGGTTGGGCAGGGTGTTTCTCATG returned an RUNX1 binding intensity of 807.
Regarding GCCTGAAGCCACGCAGGGCCACGTCTGCGGTTCTGA, the RUNX1 binding intensity came to 918.
GCCTTGTGGGCGCTCACTTGCCCCGAAAGTACTGTT gave an RUNX1 binding intensity of 808.
As for TAAGGCTGTGTGGCTTCCAGATCAAAAACCGCAAAA, the figure is 8380.
As for ATGTCATGAAGAGGCTCAGGGCTGTGGTTTCTCTGT, the figure is 1030; as for GCATTTACGGGCACGAAATGAAACCACAGAGTACAA, 1240; as for CTTGTGGCTCCTTTCCACCCGCCCCGTAAGCCGGCC, 930.
As for CGGGAGCGGCCGCAGTGACGACTCCCGGGATGCTCC, the figure is 713; as for TGCTGCACCGCAGCCCCTTTCTCTTACGGTTCTAGG, 1020.
Consider CATAGACCTGATGCCTCGTCAACCACAGAAACCAAT, for which the RUNX1 binding intensity is 1420.
Consider GCTCCCGTATGTTCTGGGGATCTGCGGCCGCCTGGC, for which the RUNX1 binding intensity stood at 752.
Sequence TCTGCGGCCTCCTCCACCCCCACACCTCCTCTCTGC returned an RUNX1 binding intensity of 1200.
For TTCCAAACCTCAACCTGCAGCCTGAATGGGGGAGTG, the RUNX1 binding intensity stood at 1000.
The sequence TGCGCGGCCGCGGTCCGCCCTCTCTTCTGGAGGGCG gave an RUNX1 binding intensity of 745 ± 24.
As to AAGGTCGCGGTCTCGGCTTCCCTGGAACTTTTTGCT, the RUNX1 binding intensity was 929.
